In the supplement of paper PMC8728848:
The other results are listed elsewhere or left out.

How the values were obtained:
Assay in all cases: glycan array binding signal (z-score within array); higher = stronger binding
Conditions in all cases: glycan notation: IUPAC condensed, linker removed
[1] = target: Fuc(a1-2)Gal(b1-4)GlcNAc(b1-3)Gal(b1-4)GlcNAc(b1-3)Gal(b1-4)GlcNAc
Procedure, shortened: (§1)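 Arrays were curated from the Consortium for Functional Glycomics database, 3228 in total, and kept only where the protein sequence was available. Binding is expressed as a within-array Z-score. This score was averaged across arrays of the same protein sequence at different concentrations or buffers and across linkers, and negative values can be read as non-binding.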

[2] = target: Fuc(a1-2)Gal(b1-4)GlcNAc(b1-3)GalNAc
Procedure, shortened: as §1

[3] = target: Fuc(a1-2)Gal(b1-4)GlcNAc(b1-3)[Fuc(a1-2)Gal(b1-4)GlcNAc(b1-6)]GalNAc
Procedure, shortened: as §1

[4] = target: Fuc(a1-2)Gal(b1-4)GlcNAc(b1-3)[Fuc(a1-3)[Gal(b1-4)]GlcNAc(b1-6)]Gal(b1-4)Glc
Procedure, shortened: as §1

[5] = target: Fuc(a1-2)Gal(b1-4)GlcNAc(b1-6)GalNAc
Procedure, shortened: as §1

[6] = target: Fuc(a1-2)Gal(b1-4)GlcNAc6S
Procedure, shortened: as §1

[7] = target: Fuc(a1-2)Gal(b1-4)[Fuc(a1-3)]GlcNAc
Procedure, shortened: as §1

[8] = target: Fuc(a1-2)Gal(b1-4)[Fuc(a1-3)]GlcNAc(b1-2)Man(a1-3)[Fuc(a1-2)Gal(b1-4)[Fuc(a1-3)]GlcNAc(b1-2)Man(a1-6)]Man(b1-4)GlcNAc(b1-4)[Fuc(a1-6)]GlcNAc
Procedure, shortened: as §1

[9] = target: Fuc(a1-2)Gal(b1-4)[Fuc(a1-3)]GlcNAc(b1-2)[Fuc(a1-2)Gal(b1-4)[Fuc(a1-3)]GlcNAc(b1-4)]Man(a1-3)[Fuc(a1-2)Gal(b1-4)[Fuc(a1-3)]GlcNAc(b1-2)Man(a1-6)]Man(b1-4)GlcNAc(b1-4)GlcNAc
Procedure, shortened: as §1

[10] = target: Fuc(a1-2)Gal(b1-4)[Fuc(a1-3)]GlcNAc(b1-3)Gal(b1-4)[Fuc(a1-3)]GlcNAc
Procedure, shortened: as §1

[11] = target: Fuc(a1-2)Gal(b1-4)[Fuc(a1-3)]GlcNAc(b1-3)Gal(b1-4)[Fuc(a1-3)]GlcNAc(b1-3)Gal(b1-4)[Fuc(a1-3)]GlcNAc
Procedure, shortened: as §1

[12] = target: Fuc(a1-2)Gal(b1-4)[Fuc(a1-3)]GlcNAc(b1-3)GalNAc
Procedure, shortened: as §1

[13] = target: Fuc(a1-2)Gal(b1-4)[Fuc(a1-3)]GlcNAc(b1-3)[Neu5Ac(a2-6)Gal(b1-4)GlcNAc(b1-6)]Gal(b1-4)Glc
Procedure, shortened: as §1

[14] = target: Fuc(a1-2)Gal3S(b1-4)GlcNAc
Procedure, shortened: as §1

[15] = target: Fuc(a1-2)Gal6S(b1-3)GlcNAc
Procedure, shortened: as §1

[16] = target: Fuc(a1-2)Gal6S(b1-3)GlcNAc6S
Procedure, shortened: as §1

Fuc(a1-2)Gal6S(b1-4)Glc = target: Fuc(a1-2)Gal6S(b1-4)Glc
Procedure, shortened: as §1

[17] = target: Fuc(a1-2)Gal6S(b1-4)Glc6S
Procedure, shortened: as §1

Fuc(a1-2)[Gal(a1-3)]Gal = target: Fuc(a1-2)[Gal(a1-3)]Gal
Procedure, shortened: as §1

[18] = target: Fuc(a1-2)[Gal(a1-3)]Gal(b1-3)GalNAc
Procedure, shortened: as §1

[19] = target: Fuc(a1-2)[Gal(a1-3)]Gal(b1-3)GalNAc(b1-3)Gal(a1-4)Gal(b1-4)Glc
Procedure, shortened: as §1

[20] = target: Fuc(a1-2)[Gal(a1-3)]Gal(b1-3)GlcNAc
Procedure, shortened: as §1

[21] = target: Fuc(a1-2)[Gal(a1-3)]Gal(b1-3)GlcNAc(b1-2)Man(a1-3)[Fuc(a1-2)[Gal(a1-3)]Gal(b1-3)GlcNAc(b1-2)Man(a1-6)]Man(b1-4)GlcNAc(b1-4)GlcNAc
Procedure, shortened: as §1

[22] = target: Fuc(a1-2)[Gal(a1-3)]Gal(b1-3)GlcNAc(b1-2)Man(a1-3)[Fuc(a1-2)[Gal(a1-3)]Gal(b1-3)GlcNAc(b1-2)Man(a1-6)]Man(b1-4)GlcNAc(b1-4)[Fuc(a1-6)]GlcNAc
Procedure, shortened: as §1

[23] = target: Fuc(a1-2)[Gal(a1-3)]Gal(b1-3)GlcNAc(b1-3)GalNAc
Procedure, shortened: as §1

[24] = target: Fuc(a1-2)[Gal(a1-3)]Gal(b1-3)GlcNAc(b1-6)GalNAc
Procedure, shortened: as §1

[25] = target: Fuc(a1-2)[Gal(a1-3)]Gal(b1-4)Glc
Procedure, shortened: as §1

[26] = target: Fuc(a1-2)[Gal(a1-3)]Gal(b1-4)GlcNAc
Procedure, shortened: as §1

[27] = target: Fuc(a1-2)[Gal(a1-3)]Gal(b1-4)GlcNAc(b1-2)Man
Procedure, shortened: as §1

[28] = target: Fuc(a1-2)[Gal(a1-3)]Gal(b1-4)GlcNAc(b1-2)Man(a1-3)[Fuc(a1-2)[Gal(a1-3)]Gal(b1-4)GlcNAc(b1-2)Man(a1-6)]Man(b1-4)GlcNAc(b1-4)GlcNAc
Procedure, shortened: as §1

B1: B1567 (Bifidobacterium sp) (protein)
chain: MKFTTAKKAVALTGAVAMLVSVAACGSDSGKSSQPAQDSDVKEITVWAWEPSLTQVAKDFEKETGIKVDLKNVGTNTKEYTQLDNAIEAGSGAPDVAQVEYYAVPQYAIKGNLLDITDKTSGYKDFYTPGPWASVQFAGKVYGLPMDSGPMAFFYNKEVFDKAGVDAEQIKTWDQYYDAAKKIHALGDNYYITSDTGDAGFFDSMTWLAGAKPFQTSSDGSEVTVNLTEDKGVKTFTDFWQKLLDEGLLDTKTAGWSEDWFKGMVDGTIASLFTGAWMPANLANSAADGAGKWRVTQMPTADGSTTNSENGGSSLAVLASTKKADAAYQFIEYANHGAGVATRVAGGAFPADKASLEKDSFKNATTVKNADGQDVDYFGGQKYNEVLAQAAENVSSGYQFLPFEVKARTIFGDYFGKSYTGDQKLSDGVAAWQKALQDYGKDQGFTVK
glycan array binding signal (z-score) [1]: -0.022 | glycan array binding signal (z-score) [2]: -0.127 | glycan array binding signal (z-score) [3]: -0.135 | glycan array binding signal (z-score) [4]: -0.091 | glycan array binding signal (z-score) [5]: 0.021 | glycan array binding signal (z-score) [6]: -0.121 | glycan array binding signal (z-score) [7]: -0.12 | glycan array binding signal (z-score) [8]: -0.075 | glycan array binding signal (z-score) [9]: -0.056 | glycan array binding signal (z-score) [10]: -0.104 | glycan array binding signal (z-score) [11]: 0.016 | glycan array binding signal (z-score) [12]: 0.016 | glycan array binding signal (z-score) [13]: -0.127 | glycan array binding signal (z-score) [14]: -0.099 | glycan array binding signal (z-score) [15]: -0.09 | glycan array binding signal (z-score) [16]: -0.077 | glycan array binding signal (z-score) (Fuc(a1-2)Gal6S(b1-4)Glc): 0.053 | glycan array binding signal (z-score) [17]: -0.068 | glycan array binding signal (z-score) (Fuc(a1-2)[Gal(a1-3)]Gal): -0.123 | glycan array binding signal (z-score) [18]: -0.099 | glycan array binding signal (z-score) [19]: -0.093 | glycan array binding signal (z-score) [20]: -0.11 | glycan array binding signal (z-score) [21]: 0.044 | glycan array binding signal (z-score) [22]: -0.036 | glycan array binding signal (z-score) [23]: -0.097 | glycan array binding signal (z-score) [24]: -0.109 | glycan array binding signal (z-score) [25]: -0.174 | glycan array binding signal (z-score) [26]: -0.012 | glycan array binding signal (z-score) [27]: -0.112 | glycan array binding signal (z-score) [28]: -0.053
